Test results reported in patent publication US8992932B2 (Seattle Genetics, Inc., dated 2015).
Numbering of substitutions follows the chain as printed.

T1: C4.4a on A549 cells transfected with the sequence for the complete C4.4a receptor (Homo sapiens)
T1 chain: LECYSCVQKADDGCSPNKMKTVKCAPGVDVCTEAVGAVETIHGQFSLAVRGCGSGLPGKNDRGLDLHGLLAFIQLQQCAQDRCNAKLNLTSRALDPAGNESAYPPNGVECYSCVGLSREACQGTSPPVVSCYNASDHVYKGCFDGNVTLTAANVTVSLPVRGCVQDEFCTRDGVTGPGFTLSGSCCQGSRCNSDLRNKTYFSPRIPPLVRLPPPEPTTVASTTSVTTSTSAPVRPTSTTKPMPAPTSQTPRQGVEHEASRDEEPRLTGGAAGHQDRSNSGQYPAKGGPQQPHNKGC

B1: ADC of Example 26 (antibody)
heavy: QVELLESGGGLVQPGGSLRLSCAASGFTFSNAWMSWVRQAPGKGLEWVSYISSSGSTIYYADSVKGRFTISRDNSKNTLYLQMNSLRAEDTAVYYCAREGLWAFDYWGQGTLVTVSS[in this place human IgG1 constant region]
light: DIVLTQPPSASGTPGQRVTISCTGSSSNIGAGYVVHWYQQLPGTAPKLLIYDNNKRPSGVPDRFSGSKSGTSASLAISGLRSEDEADYYCAAWDDRLNGPVFGGGTKLTVLGQPKAAPSVTLFPPSSEELQANKATLVCLISDFYPGAVTVAWKGDSSPVKAGVETTTPSKQSNNKYAASSYLSLTPEQWKSHRSYSCQVTHEGSTVEKTVAPTECS
modifications: toxophore-linker on Cys (via S); toxophore-linker on Cys (via S)
B2: ADC of Example 28 (antibody)
heavy: B1 heavy
light: B1 light
modifications: toxophore-linker on Cys (via S); toxophore-linker on Cys (via S)
B3: ADC of Example 32 (antibody)
heavy: B1 heavy
light: B1 light
modifications: toxophore-linker on Cys (via S); toxophore-linker on Cys (via S)
B4: ADC of Example 33 (antibody)
heavy: B1 heavy
light: B1 light
modifications: toxophore-linker on Cys (via S); toxophore-linker on Cys (via S)
B5: ADC of Example 51 (antibody)
heavy: B1 heavy with Q1E, E3Q
light: B1 light with D1E, I2S, A10V, T13A, G155A
modifications: toxophore-linker on Cys (via S); toxophore-linker on Cys (via S)
B6: ADC of Example 54 (antibody)
heavy: B1 heavy with Q1E, E3Q
light: B1 light with D1E, I2S, A10V, T13A, G155A
modifications: toxophore-linker on Cys (via S); toxophore-linker on Cys (via S)
B7: ADC of Example 56 (antibody)
heavy: B1 heavy with Q1E, E3Q
light: B1 light with D1E, I2S, A10V, T13A, G155A
modifications: toxophore-linker on Cys (via S); toxophore-linker on Cys (via S)
B8: ADC of Example 68 (antibody)
heavy: B1 heavy with Q1E, E3Q
light: B1 light with D1E, I2S, A10V, T13A, G155A
modifications: toxophore-linker on Cys (via S); toxophore-linker on Cys (via S)
B9: ADC of Example 80 (antibody)
heavy: B1 heavy with Q1E, E3Q
light: B1 light with D1E, I2S, A10V, T13A, G155A
modifications: toxophore-linker on Cys (via S); toxophore-linker on Cys (via S)
B10: ADC of Example 81 (antibody)
heavy: B1 heavy with Q1E, E3Q
light: B1 light with D1E, I2S, A10V, T13A, G155A
modifications: toxophore-linker on Lys (via NH); toxophore-linker on Lys (via NH)
B11: ADC of Example 82 (antibody)
heavy: B1 heavy with Q1E, E3Q
light: B1 light with D1E, I2S, A10V, T13A, G155A
modifications: toxophore-linker on Cys (via S); toxophore-linker on Cys (via S)
B12: ADC of Example 83 (antibody)
heavy: B1 heavy with Q1E, E3Q
light: B1 light with D1E, I2S, A10V, T13A, G155A
modifications: toxophore-linker on Cys (via S); toxophore-linker on Cys (via S)
B13: ADC of Example 84 (antibody)
heavy: B1 heavy with Q1E, E3Q
light: B1 light with D1E, I2S, A10V, T13A, G155A
modifications: toxophore-linker on Cys (via S); toxophore-linker on Cys (via S)
B14: ADC of Example 85 (antibody)
heavy: B1 heavy with Q1E, E3Q
light: B1 light with D1E, I2S, A10V, T13A, G155A
modifications: toxophore-linker on Cys (via S); toxophore-linker on Cys (via S)
B15: ADC of Example 86 (antibody)
heavy: B1 heavy with Q1E, E3Q
light: B1 light with D1E, I2S, A10V, T13A, G155A
modifications: toxophore-linker on Lys (via NH); toxophore-linker on Lys (via NH)
B16: ADC of Example 91 (antibody)
heavy: B1 heavy with Q1E, E3Q
light: B1 light with D1E, I2S, A10V, T13A, G155A
modifications: toxophore-linker on Lys (via NH); toxophore-linker on Lys (via NH)
B17: ADC of Example 92 (antibody)
heavy: B1 heavy with Q1E, E3Q
light: B1 light with D1E, I2S, A10V, T13A, G155A
modifications: toxophore-linker on Cys (via S); toxophore-linker on Cys (via S)
B18: ADC of Example 93 (antibody)
heavy: B1 heavy with Q1E, E3Q
light: B1 light with D1E, I2S, A10V, T13A, G155A
modifications: toxophore-linker on Cys (via S); toxophore-linker on Cys (via S)
B19: ADC of Example 94 (antibody)
heavy: B1 heavy with Q1E, E3Q
light: B1 light with D1E, I2S, A10V, T13A, G155A
modifications: toxophore-linker on Cys (via S); toxophore-linker on Cys (via S)
B20: ADC of Example 95 (antibody)
heavy: B1 heavy with Q1E, E3Q
light: B1 light with D1E, I2S, A10V, T13A, G155A
modifications: toxophore-linker on Cys (via S); toxophore-linker on Cys (via S)
B21: ADC of Example 96 (antibody)
heavy: B1 heavy with Q1E, E3Q
light: B1 light with D1E, I2S, A10V, T13A, G155A
modifications: toxophore-linker on Lys (via NH); toxophore-linker on Lys (via NH)
B22: ADC of Example 97 (antibody)
heavy: B1 heavy with Q1E, E3Q
light: B1 light with D1E, I2S, A10V, T13A, G155A
modifications: toxophore-linker on Cys (via S); toxophore-linker on Cys (via S)
B23: ADC of Example 98 (antibody)
heavy: B1 heavy with Q1E, E3Q
light: B1 light with D1E, I2S, A10V, T13A, G155A
modifications: toxophore-linker on Cys (via S); toxophore-linker on Cys (via S)
B24: ADC of Example 99 (antibody)
heavy: B1 heavy with Q1E, E3Q
light: B1 light with D1E, I2S, A10V, T13A, G155A
modifications: toxophore-linker on Lys (via NH); toxophore-linker on Lys (via NH)
B25: ADC of Example 100 (antibody)
heavy: B1 heavy with Q1E, E3Q
light: B1 light with D1E, I2S, A10V, T13A, G155A
modifications: toxophore-linker on Lys (via NH); toxophore-linker on Lys (via NH)
B26: ADC of Example 101 (antibody)
heavy: B1 heavy with Q1E, E3Q
light: B1 light with D1E, I2S, A10V, T13A, G155A
modifications: toxophore-linker on Lys (via NH); toxophore-linker on Lys (via NH)
B27: ADC of Example 102 (antibody)
heavy: B1 heavy with Q1E, E3Q
light: B1 light with D1E, I2S, A10V, T13A, G155A
modifications: toxophore-linker on Lys (via NH); toxophore-linker on Lys (via NH)
B28: ADC of Example 103 (antibody)
heavy: B1 heavy with Q1E, E3Q
light: B1 light with D1E, I2S, A10V, T13A, G155A
modifications: toxophore-linker on Lys (via NH); toxophore-linker on Lys (via NH)
B29: ADC of Example 104 (antibody)
heavy: B1 heavy with Q1E, E3Q
light: B1 light with D1E, I2S, A10V, T13A, G155A
modifications: toxophore-linker on Lys (via NH); toxophore-linker on Lys (via NH)
B30: ADC of Example 105 (antibody)
heavy: B1 heavy with Q1E, E3Q
light: B1 light with D1E, I2S, A10V, T13A, G155A
modifications: toxophore-linker on Lys (via NH); toxophore-linker on Lys (via NH)
B31: ADC of Example 106 (antibody)
heavy: B1 heavy with Q1E, E3Q
light: B1 light with D1E, I2S, A10V, T13A, G155A
modifications: toxophore-linker on Lys (via NH); toxophore-linker on Lys (via NH)
B32: ADC of Example 107 (antibody)
heavy: B1 heavy with Q1E, E3Q
light: B1 light with D1E, I2S, A10V, T13A, G155A
modifications: toxophore-linker on Cys (via S); toxophore-linker on Cys (via S)
B33: ADC of Example 108 (antibody)
heavy: B1 heavy with Q1E, E3Q
light: B1 light with D1E, I2S, A10V, T13A, G155A
modifications: toxophore-linker on Lys (via NH); toxophore-linker on Lys (via NH)
B34: ADC of Example 109 (antibody)
heavy: B1 heavy with Q1E, E3Q
light: B1 light with D1E, I2S, A10V, T13A, G155A
modifications: toxophore-linker on Cys (via S); toxophore-linker on Cys (via S)
B35: ADC of Example 110 (antibody)
heavy: B1 heavy with Q1E, E3Q
light: B1 light with D1E, I2S, A10V, T13A, G155A
modifications: toxophore-linker on Cys (via S); toxophore-linker on Cys (via S)
B36: ADC of Example 112 (antibody)
heavy: B1 heavy with Q1E, E3Q
light: B1 light with D1E, I2S, A10V, T13A, G155A
modifications: toxophore-linker on Cys (via S); toxophore-linker on Cys (via S)
B37: ADC of Example 113 (antibody)
heavy: B1 heavy with Q1E, E3Q
light: B1 light with D1E, I2S, A10V, T13A, G155A
modifications: toxophore-linker on Cys (via S); toxophore-linker on Cys (via S)
B38: ADC of Example 114 (antibody)
heavy: B1 heavy with Q1E, E3Q
light: B1 light with D1E, I2S, A10V, T13A, G155A
modifications: toxophore-linker on Cys (via S); toxophore-linker on Cys (via S)
B39: ADC of Example 118 (antibody)
heavy: B1 heavy with Q1E, E3Q
light: B1 light with D1E, I2S, A10V, T13A, G155A
modifications: toxophore-linker on Lys (via NH); toxophore-linker on Lys (via NH)
B40: ADC of Example 119 (antibody)
heavy: B1 heavy with Q1E, E3Q
light: B1 light with D1E, I2S, A10V, T13A, G155A
modifications: toxophore-linker on Cys (via S); toxophore-linker on Cys (via S)
B41: ADC of Example 120 (antibody)
heavy: B1 heavy with Q1E, E3Q
light: B1 light with D1E, I2S, A10V, T13A, G155A
modifications: toxophore-linker on Lys (via NH); toxophore-linker on Lys (via NH)
B42: ADC of Example 121 (antibody)
heavy: B1 heavy with Q1E, E3Q
light: B1 light with D1E, I2S, A10V, T13A, G155A
modifications: toxophore-linker on Lys (via NH); toxophore-linker on Lys (via NH)

Target: T1, C4.4a on A549 cells transfected with …
Experiment: cell-based or functional assay

| Binder | IC50 [nM] A549: C4.4a (cell viability) |
| --- | --- |
| B1 | 0.052 nM |
| B2 | 0.062 nM |
| B3 | 0.035 nM |
| B4 | 0.037 nM |
| B5 | 0.044 nM |
| B6 | 0.074 nM |
| B7 | 0.037 nM |
| B8 | 0.02 nM |
| B9 | 3 nM |
| B10 | 0.045 nM |
| B11 | 0.06 nM |
| B12 | 0.27 nM |
| B13 | 0.13 nM |
| B14 | 0.14 nM |
| B15 | 0.17 nM |
| B16 | 0.15 nM |
| B17 | 0.29 nM |
| B18 | 0.04 nM |
| B19 | 0.035 nM |
| B20 | 0.036 nM |
| B21 | 0.018 nM |

| Binder | IC50 [nM] A549: C4.4a (cell viability) |
| --- | --- |
| B22 | 0.062 nM |
| B23 | 0.06 nM |
| B24 | 0.1 nM |
| B25 | 0.1 nM |
| B26 | 0.3 nM |
| B27 | 0.1 nM |
| B28 | 0.2 nM |
| B29 | 3 nM |
| B30 | 0.03 nM |
| B31 | 0.05 nM |
| B32 | > 100 nM |
| B33 | 0.03 nM |
| B34 | 1 nM |
| B35 | 0.2 nM |
| B36 | 0.27 nM |
| B37 | 3 nM |
| B38 | 0.05 nM |
| B39 | 0.29 nM |
| B40 | 0.32 nM |
| B41 | 0.07 nM |
| B42 | 0.03 nM |
